{"source": "PubChem BioAssay AID624417", "about": "(National Center for Advancing Translational Sciences (NCATS), 2012)", "note": "Out of some 410,000 compounds screened, about 6,400 (1.6%) were called active. Inconclusive results, whose numbers are uncertain, are shown with a selection of clear calls. The call rests on the fitted dose curve; in most records, active means well fitted inhibition curve with a large enough effect; inconclusive means small, poorly fitted or top-dose-only effect; inactive means no such curve, though single readings can be large or run the other way. No potency is given beside an inconclusive call; the fits are too rough."}
{"biological_target": "Glucagon-like peptide 1 receptor (Homo sapiens) (UniProt P43220)", "sequence (P43220 whole entry, looked up)": "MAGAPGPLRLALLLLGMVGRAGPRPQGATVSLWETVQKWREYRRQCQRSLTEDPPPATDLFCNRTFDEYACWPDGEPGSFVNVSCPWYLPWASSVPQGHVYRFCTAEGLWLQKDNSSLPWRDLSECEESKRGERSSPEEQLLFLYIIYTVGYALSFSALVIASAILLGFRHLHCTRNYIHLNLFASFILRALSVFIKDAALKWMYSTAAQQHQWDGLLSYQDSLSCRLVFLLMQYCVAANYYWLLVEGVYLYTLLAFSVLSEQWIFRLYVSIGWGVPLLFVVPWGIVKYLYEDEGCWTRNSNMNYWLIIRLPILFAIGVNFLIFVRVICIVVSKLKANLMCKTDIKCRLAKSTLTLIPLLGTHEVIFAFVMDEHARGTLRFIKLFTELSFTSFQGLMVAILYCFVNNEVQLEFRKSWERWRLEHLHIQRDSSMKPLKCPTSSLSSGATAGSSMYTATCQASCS", "assay": "qHTS of GLP-1 Receptor Inverse Agonists (Inhibition Mode); further: nearly all actives have a fitted effect of over 55% in size; further: potency means the concentration at half of the fitted maximal effect; tags describe the fitted curve by direction and shape", "settings": "HEK293 GLP-1R CRE-luciferase, luminescence, 24 h, GLP-1R form is constitutively active; series mostly up to 38.3 µM", "method_in_brief": "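Luminescence readout: a drop in cAMP-driven luciferase signal flags inverse agonism at a constitutively active GLP-1R stably expressed in HEK293. Compound exposure lasted 24 hr at 37 deg C, 5% CO2.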"}
{"molecule": "O=C(Nc1ccccc1Cl)c1cc(C2CCCCN2S(=O)(=O)c2ccccc2)on1", "note": "(configuration not stated)", "Potency": "inconclusive [inhibitor, single point]"}
{"molecule": "O=C(CN1CCN(Cc2ccc(F)cc2Cl)S1(=O)=O)Nc1ccc(F)cc1", "Potency": "inactive"}
{"molecule": "Cc1ccc2c(CN(C)Cc3ccc(Cl)cc3)cc(=O)oc2c1", "Potency": "inconclusive [inhibitor, single point]"}
{"molecule": "COc1ccc(-c2nc(Cn3c(SCc4cccc(Cl)c4)nc4ccncc43)c(C)o2)cc1", "Potency": "inconclusive [inhibitor, partial curve, poor fit]"}
{"molecule": "CCOc1ccc(C(C)=O)cc1COc1cccnc1[N+](=O)[O-]", "Potency": "inconclusive [inhibitor, single point]"}
{"molecule": "Cc1ccc(C)c(NC(=O)c2cccc(Oc3ccc([N+](=O)[O-])cc3Cl)c2)c1", "Potency": "inconclusive [inhibitor, partial curve, poor fit]"}
{"molecule": "Cc1ccc(S(=O)(=O)N2CCCOC2CNC(=O)C(=O)NCCC2=CCCCC2)cc1", "note": "(configuration not stated)", "Potency": "inconclusive [inhibitor, partial curve, poor fit]"}
{"molecule": "CC(C)(C)[C@@H]1C=C(C(=O)O)[C@H](c2ccc(Cl)cc2)N1S(=O)(=O)c1ccccc1", "Potency": "inconclusive [inhibitor, single point]"}
{"molecule": "COC(=O)c1c(C)cc(C)n2c1nc1ccccc12", "Potency": "inactive"}
{"molecule": "CC1(C)C2CCC(CN=C(N)CSS(=O)(=O)O)C1C2", "note": "(configuration not stated)", "Potency": "inactive"}
{"molecule": "O=S(=O)(c1ccccc1F)N1CCCc2ccccc21", "Potency": "inconclusive [inhibitor, partial curve, poor fit]"}
{"molecule": "COC(=O)CN(c1ccccn1)S(=O)(=O)c1ccccc1", "Potency": "inactive"}
{"molecule": "Cc1ccc(S(=O)(=O)N2[C@@H](c3ccc(Cl)cc3)C(C(=O)O)=CC[C@H]2c2ccc3c(c2)OCO3)cc1", "Potency": "inconclusive [inhibitor, partial curve]"}
{"molecule": "Cc1cccc(Cn2c(C)c(C)c3cc(C(=O)NCc4ccco4)ccc32)c1", "Potency": "inconclusive [inhibitor, partial curve]"}
{"molecule": "O=C(NC(=S)N1CCN(c2ccc(F)cc2)CC1)c1ccccc1", "Potency": "inconclusive [inhibitor, partial curve, poor fit]"}
{"molecule": "Cc1c([N+](=O)[O-])cc(C(=O)Oc2ccc(Br)cc2C(=S)N2CCCCC2)cc1[N+](=O)[O-]", "Potency": "inconclusive [inhibitor, single point]"}
{"molecule": "Cc1cccc(NC(NC(=O)c2ccccc2[N+](=O)[O-])C(Cl)(Cl)Cl)c1", "note": "(configuration not stated)", "Potency": "inconclusive [inhibitor, single point]"}
{"molecule": "Cc1cccc2cc(COC(=O)c3ccccc3)c(=O)[nH]c12", "Potency": "inactive"}
{"molecule": "CCC(C(=O)Nc1nc(C)cs1)c1ccccc1", "note": "(configuration not stated)", "Potency": "inconclusive [inhibitor, partial curve]"}
{"molecule": "COc1cc(/C=C/C(=O)OCC(=O)Nc2cccc(Oc3ccccc3)c2)ccc1O", "Potency": "inconclusive [inhibitor, single point]"}
{"molecule": "CC[C@]12c3[nH]c4ccccc4c3CCN1C(=O)C(CC(=O)NCC13CC4CC(CC(C4)C1)C3)C[C@@H]2C(=O)N1CCN(C(=O)C2CC2)CC1", "note": "(some centres not stated)", "Potency": "inconclusive [inhibitor, single point]"}
{"molecule": "CCc1ccc(C(=O)Nc2nnn(CC)n2)cc1", "Potency": "inconclusive [inhibitor, partial curve, poor fit]"}
{"molecule": "COc1ccc(-n2nc(C(=O)NCC(=O)NCCCN3CCC(C)CC3)c3ccccc3c2=O)cc1Cl", "Potency": "inconclusive [inhibitor, single point]"}
{"molecule": "Cc1ccc(C)c(SCC(=O)NC(=O)NCc2ccccc2)c1", "Potency": "inconclusive [inhibitor, partial curve]"}
{"molecule": "Cc1ccc(C(C)NC(=O)/C(C#N)=C\\c2c(C)[nH]c3ccccc23)cc1", "note": "(configuration not stated)", "Potency": "inconclusive [inhibitor, single point]"}
{"molecule": "CC(/C=N\\NC(=O)c1cc(C)oc1C)=C\\c1ccccc1", "Potency": "inactive"}
{"molecule": "COc1ccc(OC)c(Nc2ncnc3c2cnn3-c2cccc(Cl)c2)c1", "Potency": "inconclusive [inhibitor, full curve]"}
{"molecule": "COc1ccc(OC)c(/C=N\\NC(=O)CC(=O)NCCc2ccccc2)c1", "Potency": "inactive"}
{"molecule": "O=C(c1cccc(S(=O)(=O)N2CCCCC2)c1)N1CCN(Cc2ccccc2)CC1", "Potency": "inconclusive [inhibitor, partial curve, poor fit]"}
{"molecule": "Cc1cc2c(c(=O)n1C)C(Cc1ccccc1)C(C#N)=C(N)O2", "note": "(configuration not stated)", "Potency": "inactive"}
{"molecule": "CCOP(=O)(OCC)C(NC(=O)Nc1ccccc1)c1ccccc1", "note": "(configuration not stated)", "Potency": "inactive"}
{"molecule": "COc1cccc(C(=O)N2CCCc3ccccc32)c1OC", "Potency": "inconclusive [inhibitor, single point]"}
{"molecule": "COc1cc(CNCCSc2nnnn2C)cc(Br)c1OCc1ccc(F)cc1", "Potency": "inconclusive [inhibitor, partial curve, poor fit]"}
{"molecule": "CC1CCN(C(=O)c2cccc(S(=O)(=O)N3CCCc4ccccc43)c2)CC1", "Potency": "inconclusive [inhibitor, single point]"}
{"molecule": "Cc1ccc(NC(=O)C2CCCN2S(=O)(=O)c2ccc3nc(-c4ccccc4)[nH]c3c2)cc1F", "note": "(configuration not stated)", "Potency": "inconclusive [inhibitor, partial curve, poor fit]"}
{"molecule": "COCCNC(=O)C1(C)CCCN(Cc2cc(-c3ccccc3)n(C)n2)C1", "note": "(configuration not stated)", "Potency": "inactive"}
{"molecule": "Cn1cccc1Cc1nnc(SCC(=O)Nc2nccs2)n1CCc1ccccc1", "Potency": "inactive"}
{"molecule": "O=C1/C(=C/c2cccc(O)c2)SC(=S)N1CC1CCCO1", "note": "(configuration not stated)", "Potency": "inconclusive [inhibitor, single point]"}
{"molecule": "COc1ccc(Cl)cc1C(=O)NCCCSc1ccccc1", "Potency": "inconclusive [inhibitor, single point]"}
{"molecule": "Cc1nnc(NC(=O)c2ccc3ccccc3c2)o1", "Potency": "active: 11.2 µM"}
{"molecule": "COc1cccc(-c2ccc(NC(=O)C3CCCN(Cc4cnc(C)n4C)C3)cc2)c1", "note": "(configuration not stated)", "Potency": "inconclusive [inhibitor, partial curve]"}
{"molecule": "CCN(CC(=O)NCc1ccc(F)cc1)C(=O)/C=C/c1ccc(S(=O)(=O)N(CC)CC)cc1", "Potency": "inconclusive [inhibitor, partial curve, poor fit]"}
